In PubChem BioAssay AID1745845 (National Center for Advancing Translational Sciences (NCATS), 2022):
The whole screen tested about 360,000 compounds, of which about 2,600 (0.72%) were called active. Inconclusive means that the source gave no clear call. Such entries were picked first, then a sample of the others. Calls follow the shape of the dose curve; as a rule, active = well fitted inhibition curve with a large enough effect; inconclusive = small, poorly fitted or top-dose-only effect; inactive = no such curve, though single readings can be large or run the other way. Where the call is inconclusive, the potency comes from a doubtful curve fit.

Assay: Primary qHTS for Inhibitors of ATXN expression; also: nearly all actives have a fitted effect of over 55% in size
Details: HEK-293 ATXN2-luciferase reporter, luminescence, 24 h; series mostly up to 57 µM
How it was run: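 qHTS (up to 57 uM final) was run with 24 h compound exposure of reporter cells at 37 °C. Each well was multiplexed: SteadyGlo luminescence measured ATXN2-luciferase expression after a fluorogenic Gly-Phe-AFC viability readout (25 uM final).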
Potency is read from the fitted curve at half-maximal effect; tags tell the direction and shape of the fitted curve.

Structure (SMILES) | Potency
CCCCc1ccc(NC(=O)COc2cccc3c(=O)n(C)ccc23)cc1 | inconclusive: 12.6 µM [inhibitor, partial curve]
O=C(NCc1nc(-c2ccc(C(F)(F)F)cc2)no1)Nc1cc(Cl)cc(Cl)c1 | inconclusive: 25.1 µM [inhibitor, single point]
CCOc1ccc2c(c1)sc(N)[n+]2Cc1cc(C)cc2cccnc12 | inconclusive: 10 µM [inhibitor, partial curve, poor fit]
CC(=O)Nc1ccc(S(=O)(=O)Nc2ccccn2)cc1 | inconclusive: 11.2 µM [inhibitor, partial curve, poor fit]
O=C(OCc1ccccc1)C1CCCN1C(=O)c1cccs1 (stereo not drawn) | inactive
N/C(=N\OC(=O)c1cccc(Br)c1)c1ccccn1 | inconclusive: 17.8 µM [inhibitor, single point]
COc1cc(N2C(=O)C=CC2=O)ccc1N1C(=O)C=CC1=O | inconclusive: 37.7 µM [inhibitor, single point]
CCC(CC)C(=O)N(C)c1c(C)nc2c(OCc3ccc(C(F)(F)F)cc3)cccn12 | inconclusive: 22.4 µM [inhibitor, single point]
Cc1ccc(SC[C@H](C)CN2CCC(NC(=O)OCc3ccccc3)CCC2=O)cc1 (stereo partly drawn) | inconclusive: 35.5 µM [inhibitor, partial curve, poor fit]
CN[C@H]1CCc2cc(OC)c(OC)c(OC)c2-c2ccc(OC)c(=O)cc21 | inconclusive: 54.4 µM [inhibitor, partial curve, poor fit]
COc1cc(/C=C2\CCC(C)C3=C(c4cc(OC)c(OC)c(OC)c4)C(C#N)=C(N)OC32)cc(OC)c1OC (stereo not drawn) | inconclusive: 39.8 µM [inhibitor, single point]
CCCCn1c(=NC(C)=O)c(C#N)cc2c(=O)n3cccc(C)c3nc21 | inactive
Clc1ccc2nc(-c3ccc(Br)o3)c(Nc3ccc4c(c3)OCCO4)n2c1 | inactive
CC(C)c1ccccc1OCC(O)CN1CCN(S(=O)(=O)c2ccc([N+](=O)[O-])cc2)CC1 (stereo not drawn) | inconclusive: 31.6 µM [inhibitor, partial curve, poor fit]
CCNC(=S)N/N=C(\C)c1cccc(OC)c1 | inactive
O=C(C(=Cc1ccccc1)CN1CCCCC1)c1ccccc1 | inconclusive: 8.44 µM [inhibitor, single point]
COc1ccc(-c2nc3ccccc3s2)cc1NC(=O)c1cc2ccccc2o1 | inactive
CCOc1ccc(/C=N/NC(=O)c2nnn(-c3nonc3N)c2-c2ccc(OCC)cc2)cc1 | inactive
